In the supplement of paper PMC4166925:
± gives the standard deviation of the averaged measurements. The full ranking holds about 33,000 sequences; the median of “E-score (dimensionless, -0.5 to 0.5)” is about -0.049, and the highest 2% start at about 0.37. The list shows a part of the results.

System: T1, PmTbr T-box DNA-binding domain (GST fusion)
T1 sequence: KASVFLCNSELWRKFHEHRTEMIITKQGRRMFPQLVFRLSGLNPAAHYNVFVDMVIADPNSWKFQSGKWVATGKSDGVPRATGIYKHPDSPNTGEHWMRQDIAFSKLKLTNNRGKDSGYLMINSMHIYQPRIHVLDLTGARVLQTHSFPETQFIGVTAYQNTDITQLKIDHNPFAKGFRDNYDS
Assay: PBM E-score of 8-mer (E-score (dimensionless, -0.5 to 0.5)); Tbr is Tbrain of the sea star Patiria miniata (Pm) or the sea urchin Strongylocentrotus purpuratus (Sp); higher = stronger binding preference; most listed sequences are background and not binding sites
Conditions: the construct has about 5 more residues each side
Procedure: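 Universal protein-binding microarray (Agilent AMADID 016060, 60-bp probes with a 35-bp variable region) incubated with 200 nM GST-fused Patiria miniata Tbr T-box DNA-binding domain (residues 272-466) in PBS pH 7.5. Scored for every ungapped 8-mer (given with its reverse complement) by the Universal PBM Analysis Suite as E-score (modified Wilcoxon-Mann-Whitney enrichment, range -0.5 to 0.5; >0.45 counts as bound) and Z-score of median probe intensity. Two replicate arrays (datasets 1 and 2).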
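Note: 200 nM protein in PBS on universal arrays averaged over duplicate arrays.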

Sequence	PBM E-score of 8-mer
CCAGAGAG	-0.146 ± 0.063
CGCTGGCC	-0.166 ± 0.0028
CGAGAGTA	0.0479 ± 0.055
AGCAGCTG	0.133 ± 0.0056
AGTATAAG	-0.0609 ± 0.081
CGACAGTC	0.163 ± 0.04
GTAGGCGA	0.085 ± 0.03
AAACCGTT	0.0978 ± 0.04
ATAAGATA	-0.215 ± 0.052
CAGTGTGC	0.0644 ± 0.04
ACACTCCG	0.3818 ± 0.0019
CAGAGTGA	-0.0102 ± 0.038
AGGATGGC	-0.00084 ± 0.054
CTCATTGA	0.103 ± 0.074
AAGACCAC	-0.0744 ± 0.025
AACTCGAT	-0.0662 ± 0.057
CGATAACG	0.148 ± 0.034
ACCAAAAT	0.032 ± 0.06
CATGCATC	-0.167 ± 0.031
CTCAAGTA	0.061 ± 0.086
ACCCCCCC	-0.264 ± 0.015
ACCCCGGC	0.0962 ± 0.055

Sequence	PBM E-score of 8-mer
CAGATACA	0.0286 ± 0.039
AGGCCAGC	-0.195 ± 0.0041
GATAACGC	0.246 ± 0.0034
CCTGCGGA	0.0101 ± 0.014
TAGGTACA	-0.243 ± 0.019
CAACATCA	0.0511 ± 0.053
CGCTGCCA	0.173 ± 0.0071
ACGTTTAT	-0.0132 ± 0.022
AGCAGACG	0.00804 ± 0.011
GTCTTTGA	-0.167 ± 0.02
CCACGATC	0.00487 ± 0.013
GATGAGGA	-0.1802 ± 0.0013
AGGCGTTC	0.0817 ± 0.053
ATTCGAGC	-0.1667 ± 0.00059
GTATGAAA	-0.19 ± 0.032
TATAGACA	-0.131 ± 0.012
GGATTGAA	-0.13 ± 0.024
GGGGGTAA	-0.162 ± 0.1
ACAGGGTA	-0.172 ± 0.0098
GGGGGGGA	-0.22 ± 0.043
AAGTAACG	0.0201 ± 0.024
AAGTTAGT	-0.103 ± 0.021

Sequence	PBM E-score of 8-mer
GGGGACAA	-0.106 ± 0.041
CACGAGTA	-0.111 ± 0.046
AACTACTG	-0.0906 ± 0.028
GAATACGA	-0.0345 ± 0.0053
TCACATGA	0.085 ± 0.012
ATGGATAG	-0.237 ± 0.045
ATAGACAA	-0.196 ± 0.0023
AGTTGCGC	0.0703 ± 0.035
AACAGGGT	-0.0372 ± 0.006
CCCCTGCC	-0.321 ± 0.078
AAAAGGGT	-0.144 ± 0.075
TCGGATAA	-0.149 ± 0.058
TCTTATAA	-0.0434 ± 0.07
ATCGCCGA	0.0247 ± 0.019
AGTCCCCA	-0.202 ± 0.08
CGGTCAGA	-0.204 ± 0.0038
CGCGTAAC	0.102 ± 0.012
ATTAAAGC	-0.183 ± 0.026
CAGCGCTC	-0.116 ± 0.041
TCACTCCA	0.14 ± 0.0044
CTTCGCGA	0.277 ± 0.011
CGTTATAA	0.051 ± 0.077

Sequence	PBM E-score of 8-mer
TCAGGTAA	0.035 ± 0.03
AGCAGTTC	-0.00504 ± 0.017
AAATGGAC	-0.0943 ± 0.019
AGGCCATC	-0.336 ± 0.035
ATCAGCCA	-0.0439 ± 0.0057
TACGGGGA	-0.063 ± 0.011
AGACTGTG	0.0764 ± 0.054
CTAATGTC	0.0957 ± 0.014
ATATCCGC	-0.0252 ± 0.0053
CAAAAAGG	0.0395 ± 0.033
AGTTGTTC	-0.04 ± 0.043
GTACGGAA	-0.0981 ± 0.021
ATATCGGA	0.00895 ± 0.0044
CAGCCTGG	-0.00531 ± 0.032
CTCCTACC	-0.141 ± 0.046
TACCCGTA	-0.193 ± 0.13
CTCCATTC	-0.243 ± 0.042
CACAGTAC	-0.0516 ± 0.046
CTACGGTC	-0.289 ± 0.012
AAATCATT	-0.12 ± 0.05
